Assay results reported in the supplement of paper PMC4967469.
Lines with a small IC50 respond at low doses; a limit (>, <) means that the fit lies beyond the doses tested. AUC is the area under the same curve over the 256-fold range up to the top dose, as a fraction; values near 1 show little effect. Any top dose called inferred is not printed in the source and was worked back from the curve model.

Key:
Experiment in all cases: Viability of human cancer cell lines after 72 h of drug (GDSC screen)
[1] = compound: CC(C)(C)OC(=O)Nc1ccc(-c2cc(C(=O)NCCCCCCC(=O)NO)no2)cc1 [CAY10603]; conditions: top dose 20 µM; top dose inferred
Description: (§1)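 Human cancer cell lines in 384-well plates, medium with 10% serum, drug for 72 h over a 256-fold dose range (nine 2-fold or five 4-fold steps up to the top dose). Adherent lines were fixed and stained with the nucleic acid dye Syto60, suspension lines read with resazurin; signal relative to control wells, capped at 0 and 100%. One two-parameter sigmoid per drug and line, fitted in a mixed model over all curves with the slope shared within a line.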

[2] = compound: CCOc1cc(N2CCC(O)CC2)ccc1Nc1ncc2c(n1)N(C)c1ccccc1C(=O)N2C [XMD8-92]; conditions: top dose 10 µM; top dose inferred
Description: as §1

[3] = compound: N#Cc1c(C2CCNCC2)cc(-c2c(O)cccc2OCC2CC2)nc1N [ACHP (KIN001-260)]; conditions: top dose 20 µM; top dose inferred
Description: as §1

[4] = compound: CCc1cc2c(cc1N1CCC(N3CCOCC3)CC1)C(C)(C)c1[nH]c3cc(C#N)ccc3c1C2=O [CH5424802]; conditions: top dose 5.12 µM; top dose inferred
Description: as §1

Row | Cell Line | AUC [1] | IC50 [1] [µM] | AUC [2] | IC50 [2] [µM] | AUC [3] | IC50 [3] [µM] | AUC [4] | IC50 [4] [µM]
1 | A375 (melanoma, adherent) | 0.448 | 0.929 | 0.911 | 9.87 | 0.979 | > 20 |  | 
2 | A549 (lung adenocarcinoma, adherent) |  |  | 0.894 | > 10 |  |  |  | 
3 | CL-34 (large intestine, adherent) |  |  | 0.931 | > 10 |  |  |  | 
4 | DIFI (large intestine, adherent) |  |  | 0.928 | > 10 |  |  |  | 
5 | EW-22 (Ewing sarcoma, adherent) |  |  | 0.909 | > 10 |  |  |  | 
6 | H2810 (mesothelioma, adherent) |  |  | 0.88 | > 10 |  |  |  | 
7 | HCC-366 (non-small cell lung carcinoma, adherent) |  |  | 0.971 | > 10 |  |  |  | 
8 | JHU-029 (head and neck, adherent) |  |  | 0.94 | > 10 |  |  |  | 
9 | Jurkat (T-cell leukaemia, suspension) |  |  | 0.919 | > 10 |  |  |  | 
10 | KATOIII (stomach, semi-adherent) |  |  | 0.979 | > 10 |  |  |  | 
11 | LB647-SCLC (small cell lung carcinoma, semi-adherent) | 0.886 | > 20 | 0.931 | > 10 |  |  |  | 
12 | MKN7 (stomach, adherent) |  |  | 0.981 | > 10 |  |  |  | 
13 | NCC010 (kidney, adherent) |  |  | 0.964 | > 10 |  |  |  | 
14 | NCI-H508 (large intestine, semi-adherent) |  |  | 0.864 | > 10 |  |  |  | 
15 | NCI-H929 (myeloma, suspension) |  |  | 0.758 | 3.01 |  |  |  | 
16 | NCI-H2066 (small cell lung carcinoma, adherent) |  |  | 0.968 | > 10 |  |  |  | 
17 | NCI-N87 (stomach, adherent) |  |  | 0.924 | > 10 |  |  |  | 
18 | OCI-LY7 (B-cell lymphoma, suspension) |  |  | 0.97 | > 10 |  |  |  | 
19 | PWR-1E (prostate, adherent) |  |  | 0.984 | > 10 |  |  |  | 

Row | Cell Line | AUC [1] | IC50 [1] [µM] | AUC [2] | IC50 [2] [µM] | AUC [3] | IC50 [3] [µM] | AUC [4] | IC50 [4] [µM]
20 | SCC90 (head and neck, adherent) |  |  | 0.914 | > 10 |  |  |  | 
21 | SK-GT-2 (stomach, adherent) |  |  | 0.886 | > 10 |  |  |  | 
22 | SKM-1 (haematopoietic neoplasm, suspension) |  |  | 0.784 | 4.71 |  |  |  | 
23 | STS-0421 (soft tissue, adherent) |  |  | 0.884 | > 10 |  |  |  | 
24 | UACC-257 (melanoma, adherent) | 0.508 | 1.32 |  |  | 0.849 | > 20 | 0.979 | > 5.12
25 | UACC-812 (breast, adherent) | 0.744 | 6.08 |  |  | 0.991 | > 20 | 0.991 | > 5.12
26 | UM-UC-3 (bladder, adherent) | 0.587 | 2.13 |  |  | 0.915 | > 20 | 0.984 | > 5.12
27 | UMC-11 (lung carcinoid, adherent) | 0.412 | 0.738 |  |  | 0.965 | > 20 | 0.989 | > 5.12
28 | VM-CUB-1 (bladder, adherent) | 0.693 | 4.26 |  |  | 0.986 | > 20 | 0.987 | > 5.12
29 | VMRC-LCD (lung adenocarcinoma, adherent) |  |  | 0.947 | > 10 |  |  |  | 
30 | VMRC-RCW (kidney, adherent) | 0.7 | 4.34 |  |  | 0.975 | > 20 | 0.989 | > 5.12
31 | WM793B (melanoma, adherent) | 0.693 | 4.64 |  |  | 0.96 | > 20 | 0.979 | > 5.12
32 | WSU-NHL (lymphoid neoplasm, suspension) | 0.524 | 1.44 |  |  | 0.916 | > 20 | 0.989 | > 5.12
33 | YAPC (pancreas, adherent) | 0.853 | > 20 |  |  | 0.984 | > 20 | 0.979 | > 5.12
34 | YKG-1 (glioma, adherent) | 0.569 | 1.93 |  |  | 0.985 | > 20 | 0.981 | > 5.12
35 | YMB-1-E (breast, adherent) | 0.721 | 6.79 |  |  | 0.967 | > 20 | 0.978 | > 5.12
36 | YT (lymphoid neoplasm, suspension) | 0.189 | 0.18 |  |  | 0.887 | 16.4 | 0.973 | > 5.12
37 | ZR-75-30 (breast, adherent) |  |  | 0.957 | > 10 |  |  |  | 
